Test results from PubChem BioAssay AID1159614 (National Center for Advancing Translational Sciences (NCATS), 2016).
The whole screen tested about 45,000 compounds, of which about 65 (0.1%) were called active. The call rests on the fitted dose curve; in most records, active means well fitted activation curve with a large enough effect; inconclusive means small, poorly fitted or top-dose-only effect; inactive means no such curve, though single readings can be large or run the other way. The list shows a part of the results.

biological target: Galactocerebrosidase (Homo sapiens) (UniProt P54803); experiment: A Novel Cell-Based Assay to Identify Small Molecules for B -Galactocerebrosidase; details: 145M-Twi-hGALC-G270D cells (Twitcher mouse brain line with human GALC G270D), HMU-beta-Gal fluorescence, 48 h; series mostly up to 57.5 µM; activation: at the top concentration; further: 0% is about no effect; nearly all actives have a fitted effect of over 65% in size
Outline: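 Fluorogenic HMU-b-Gal hydrolysis (0.1 mM final, pH 5.2 citrate-phosphate with 1 mg/mL sodium taurocholate; carbonate stop buffer) measures mutant GALC activity after compound treatment of live 145M-Twi Twitcher brain cells stably carrying human GALC-G270D, with wild-type GALC line alongside; activation sought.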

UniProt P54803, sequence (P54803 whole entry, looked up): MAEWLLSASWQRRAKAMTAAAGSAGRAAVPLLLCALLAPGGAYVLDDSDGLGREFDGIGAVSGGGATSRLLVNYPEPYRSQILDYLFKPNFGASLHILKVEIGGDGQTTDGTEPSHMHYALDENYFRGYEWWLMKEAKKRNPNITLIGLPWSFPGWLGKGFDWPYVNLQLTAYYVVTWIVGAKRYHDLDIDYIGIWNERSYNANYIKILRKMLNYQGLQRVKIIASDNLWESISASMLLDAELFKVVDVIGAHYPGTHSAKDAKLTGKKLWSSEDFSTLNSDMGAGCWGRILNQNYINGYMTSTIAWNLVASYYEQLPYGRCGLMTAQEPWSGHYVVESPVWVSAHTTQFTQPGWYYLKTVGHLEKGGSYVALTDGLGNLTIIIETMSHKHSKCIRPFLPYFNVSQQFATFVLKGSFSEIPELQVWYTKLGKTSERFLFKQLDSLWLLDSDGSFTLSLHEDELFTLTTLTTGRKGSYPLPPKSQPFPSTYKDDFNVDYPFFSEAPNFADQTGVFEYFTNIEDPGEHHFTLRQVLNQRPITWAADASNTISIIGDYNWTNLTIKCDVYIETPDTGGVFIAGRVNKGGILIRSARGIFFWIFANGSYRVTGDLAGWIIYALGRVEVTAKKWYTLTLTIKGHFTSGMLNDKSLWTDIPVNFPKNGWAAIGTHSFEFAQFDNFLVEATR

activation, inactive:
O=C(O)CSc1c2c(nc3cc(C(=O)Nc4ccc(F)c(Cl)c4)ccc13)CCC2 -6.41%
CCCCOc1ccccc1C(=O)N(Cc1ccc(C)o1)C1CCS(=O)(=O)C1 (stereo unspecified) -13.4%
Cc1ccc(NC(=O)CSc2nc3c(oc4ccccc43)c(=O)n2-c2ccc(F)cc2)c(C)c1 -8.5%
CC(C)C(=O)c1c(C(C)C)nn2ccccc12 -12.4%
COc1ccc(Nc2ncc3c(n2)CCN(Cc2cc(Br)cs2)C3)c(OC)c1 -13.8%
COc1ccc(CNC(=O)c2ccc3c(c2)nc2n3CCC(C)C2)c(OC)c1 (stereo unspecified) -26.5%
COCCNC(=O)CSc1nc2cc3c(cc2c(=O)n1CCCCCC(=O)NCc1ccc(OC)cc1)OCO3 -25.2%
CC(C)c1ccc(S(=O)(=O)NCc2ccc3c(c2)CCN3C(=O)c2ccccc2)cc1 11.3%
CCOc1ccccc1NC(=O)Cn1nnc2sc(-c3ccccc3)cc2c1=O -0.567%
COc1ccc2cc(-c3nc4ccc(C(=O)O)cc4[nH]3)c(=O)oc2c1 -16.2%
C=Cc1ccc(Cn2nc(-c3ccc(C)c(S(=O)(=O)N(CC)CC)c3)ccc2=O)cc1 -9.18%
Cn1nc(-c2ccc(C(=O)Nc3ccc(F)cc3)cc2)c2ccccc2c1=O 6.96%
COCCCNC(=O)CCCCn1c(=O)c2ccccc2n(CC(=O)Nc2ccc(C)cc2C)c1=O -3.01%
Cc1cccn2c(=O)c3cc(C#N)c(=O)n(-c4nnc(SCc5ccccc5F)s4)c3nc12 -9.73%
CC(C(=O)NCc1ccccc1F)n1ccc2cc(S(=O)(=O)N3CCCC3)ccc21 (stereo unspecified) -2.08%
COc1ccc(Br)cc1C(=O)Nc1nc2ccc(F)cc2s1 -5.74%
CCc1ccccc1NC(=O)Nc1cc(C(=O)NCc2ccc(C)cc2)ccc1N1CCCC1 -9.39%
CCOc1ccccc1NC(=O)c1c(NC(=O)c2cccc(C)c2)sc2c1CCCC2 -7%
C[C@H]1[C@H]2CC[C@H]3[C@@H]4CC=C5C[C@@H](N(C)C)CC[C@]5(C)[C@H]4CC[C@]23CN1C -4.52%
O=c1c(S(=O)(=O)c2ccccc2)cn(Cc2ccccc2)c2cc(N3CCOCC3)c(F)cc12 -9.29%
O=C(Nc1ccc(C(F)(F)F)cc1)C1CCCN(c2cnccn2)C1 (stereo unspecified) 3.42%
O=C(Nc1ccccc1Cl)N1CCC(CN2CCCCC2)CC1 -16.6%
CC1CN(C(=O)Nc2ccc(C(=O)NCc3cccc(F)c3)cc2)c2ccccc2S1 (stereo unspecified) -6.35%
Cc1nn(-c2nc(-c3ccc(F)cc3)cc(C(F)(F)F)n2)c(C)c1Br -14.5%
COc1cccc(C(=O)Nc2ccccc2C(=O)OCc2cc(=O)n3c(C)csc3n2)c1 -2.43%
COc1ccc(NC(=O)Cn2c(C)cc3ccccc3c2=O)c(OC)c1 0.233%
COC(=O)c1cc(C)nc2c1c(=O)nc(SCc1cccc(C)c1)n2C1CC1 -12.6%
CC1=Nc2cc(C(=O)NC3CCCC3)ccc2Sc2ccc(C)cc21 -20.9%
CC(=O)c1ccc(NC(=O)CC2Nc3cccc4cccc(c34)NC2=O)cc1 (stereo unspecified) -14.6%
CCc1cccc(CC)c1NC(=O)c1ccc2c(c1)CCN2S(=O)(=O)c1ccccc1 -11.9%
COc1ccccc1OCC(=O)N(Cc1ccc(Cl)cc1)CC1CCCO1 (stereo unspecified) -10.6%
CSc1ccc(CCNC(=O)CCCn2nc(C)c3sc4ccccc4c3c2=O)cc1 7.93%
Cc1cccc(NC(=O)CN2C(=O)c3cccnc3Oc3ccc(Cl)cc32)c1C -8.32%
Cc1nn(-c2ccc(F)cc2)c(-n2cccc2)c1C(=O)NCCCN1CCN(c2ccccc2F)CC1 0.742%
CCOC(=O)c1ccccc1NC(=O)Nc1cc2c(cc1N1CCCCC1)n(C)c(=O)n2C -8.14%
CCOc1ccc(CNC(=O)CCS(=O)(=O)c2cc3c(cc2Cl)NC(=O)CO3)cc1OC -12.8%
CCOc1ccc(Oc2nc(NCC(C)C)nc(NC(C)(C)C)n2)nn1 -8.69%
O=C(Nc1ccc(N2CCC(c3ccccc3)C2)c(C(=O)O)c1)c1ccc(Cl)cc1 (stereo unspecified) -10.4%
COc1cccc(NC(=O)CCc2c(C)nc3c4cccnc4nn3c2C)c1 -17.3%
COCCCNC(=O)CN1C(=O)COc2ccc(S(=O)(=O)N3CCCC3)cc21 -8.49%
COc1ccc(C(=O)NCCn2cc(SCC(=O)NCCc3ccc(OC)c(OC)c3)c3ccccc32)cc1 -9.77%
COc1cccc(NC(=O)Cn2cnc3c(nc4n3CCCCC4)c2=O)c1 -11%
Cc1n[nH]c(C)c1S(=O)(=O)N(CC(=O)NC(C)c1ccccc1)c1ccc(C(C)C)cc1 (stereo unspecified) -0.69%
Cc1ccc(NC(=O)Cn2c(=O)c3cc(Cl)ccc3n3nncc23)cc1 -12.4%
COCCCNc1ncnc2onc(-c3ccc(F)cc3)c12 -9.71%
COC(=O)CS(=O)(=O)c1nc2ccccc2nc1N1CCCCC1 -8.54%
CC(C)CCNC(=O)Nc1ccc2c(c1)N(C)C(=O)c1ccccc1S2 -15.9%
Cc1ccc(-c2cc(C(=O)N3CCN(S(=O)(=O)c4ccc(Br)cc4)CC3)[nH]n2)cc1C 1.4%
CS(=O)(=O)N1CCc2cc(C(=O)NCCc3ccccc3)ccc21 -13%
CC1=C(c2ccc(C)c(C)c2)S(=O)(=O)N=C1N1CCC(C(=O)NCCc2ccco2)CC1 -0.938%
COc1ccc(-c2[nH]nc3nc(-c4cc(OC)c(OC)c(OC)c4)cc(C(=O)O)c23)cc1 -8.54%
COc1ccc(N2CCN(C(=O)CCc3c(C)nc4cc(-c5ccc(Cl)cc5)nn4c3C)CC2)cc1 -21.1%
Cc1nc2ccccc2c(=O)n1-c1ccc(NC(=O)c2ccc([N+](=O)[O-])cc2)cc1 -9.54%
CCOc1ccc(NCc2cccn2-c2nnc(N3CCC(C(=O)NCCc4ccc(OC)c(OC)c4)CC3)s2)cc1 -32.8%
CCC(=O)NCC(c1ccc2c(c1)OCO2)N1CCN(c2ccccc2)CC1 (stereo unspecified) -4.28%
CCCCCC=CCC=CCCCCCCCC(=O)OCC -20%
Cc1ccc2[nH]c(CSc3nnc(NC(=O)c4ccccc4C)s3)cc(=O)c2c1 -11.7%
Cc1ccccc1CNC(=O)C(=O)NCC(c1ccco1)S(=O)(=O)c1ccccc1 (stereo unspecified) -13.8%
COc1ccc(C(=O)Nc2nnc(S(=O)(=O)N(C)c3ccc(Cl)cc3)s2)cc1OC -25.2%
CCCS(=O)(=O)N1CCCC(C(=O)NCCCOC)C1 (stereo unspecified) -10.2%
Cc1ccc(CCNC(=O)c2cn(C)c3ccc(S(=O)(=O)N4CCCCC4)cc3c2=O)cc1 -9.86%
